# Screen size: about 330,000 compounds; about 4,200 (1.3%) were called active. Inconclusive results, whose numbers are uncertain, are shown with a selection of clear calls. The call rests on the fitted dose curve; in most records, active means well fitted activation curve with a large enough effect; inconclusive means small, poorly fitted or top-dose-only effect; inactive means no such curve, though single readings can be large or run the other way. Where the call is inconclusive, the potency comes from a doubtful curve fit.
# Test: qHTS screen for small molecules that induce genotoxicity in human embryonic kidney (HEK293T) cells expressing luciferase-tagged ELG1; further: nearly all actives have a fitted effect of over 60% in size; on activity change, positive = activation: % of control where 0% means no effect
# Details: HEK293T ELG1-luciferase reporter, luminescence, 16 h; series mostly up to 46 µM; activity change, positive = activation: at the top concentration
# In short: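 Genotoxicity was scored as increased ELG1-luciferase reporter signal, measured by ONE-Glo luminescence (30 min, room temperature). Compound or vehicle exposure of the HEK293T reporter cells lasted 16 hr at 37°C.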
# Potency means the concentration at half of the fitted maximal effect; tags describe the fitted curve by direction and shape.
SMILES,Potency,"activity change, positive = activation"
CSCCC(NC(=O)c1ccco1)C(=O)Nc1cc(C)ccn1 (stereo not given),"inconclusive: 14.6 µM [activator, partial curve]",
Clc1c(CSc2nc3ccccc3o2)nc2ccccn12,active: 2.59 µM,
COc1ccc(OC)c(CCNC(=O)CS(=O)(=O)Cc2nc(-c3ccccc3Cl)oc2C)c1,,inactive: -7.06%
O=C(CSc1nc(O)c(C2CCCCC2)c(=O)[nH]1)NCC1CCCO1 (stereo not given),,inactive: 2.4%
CSc1nc(N)n2nc(-c3ccc(Cl)cc3)cc2n1,"inconclusive: 9.2 µM [activator, partial curve]",
CC(=O)c1ccc(NC(=O)c2ccn[nH]2)cc1,active: 10.3 µM,
C=CCNC(=O)/C(C#N)=C/c1ccccc1OCc1ccc(C(=O)OC)cc1,"inconclusive: 18.4 µM [activator, partial curve, poor fit]",
NC(=O)c1c(/N=C/c2cccnc2)sc2c1CCCC2,"inconclusive: 20.6 µM [activator, partial curve, poor fit]",
COc1cc(OC)c(OC)cc1CNC(=O)c1cccc(S(=O)(=O)N2CCc3ccccc3C2)c1,,inactive: -7.61%
O=C(CN(Cc1ccc(F)cc1)C(=O)CNS(=O)(=O)c1ccc(Cl)cc1)NCC1CCCO1 (stereo not given),,inactive: 1.69%
O=C(NC(=S)N1CCN(c2ccc(Cl)cc2[N+](=O)[O-])CC1)c1ccco1,,inactive: -2.33%
Cc1ccc(-c2nnc(COC(=O)c3cccs3)o2)cc1,"inconclusive: 14.6 µM [activator, partial curve, poor fit]",
CSc1ccccc1OC1CCN(Cc2ccccc2)CC1,,inactive: -4.63%
O=C(Nc1nnc(CCN2CCOCC2)s1)c1ccccc1,"inconclusive: 23.1 µM [activator, partial curve, poor fit]",
O=C(CNC(=O)c1cccs1)N=Nc1c(O)[nH]c2ccc([N+](=O)[O-])cc12,,inactive: -1.16%
COc1cccc(NC(=O)c2cc3ccccc3o/c2=N\O)c1,active: 0.411 µM,
COc1cccc(C2C(C(N)=O)=C(C)Nc3nc(-c4cccc(Cl)c4)nn32)c1 (stereo not given),"inconclusive: 16.4 µM [activator, partial curve, poor fit]",
Cc1ccccc1CSCC(=O)c1c(N)n(C)c(=O)n(C)c1=O,"inconclusive: 20.6 µM [activator, single point]",
COc1ccc(C=C2c3ccccc3C(=O)c3ccccc32)c(OC)c1,"inconclusive: 11.6 µM [activator, partial curve]",
CCOC(=O)CSc1nc2cc3c(cc2cc1C#N)OCCO3,active: 6.51 µM,
CC(=O)Nc1ccc(N/C=C/C(=O)c2ccccc2)cc1,"inconclusive: 6.51 µM [activator, partial curve]",
COC(=O)c1cccc(NC(=S)NCc2ccc(F)cc2)c1,,inactive: -3.7%
Cc1ccc(CNc2nc(C)cs2)cc1,active: 1.03 µM,
N/C(=N\OC(=O)c1ccc(Cl)cc1Cl)c1ccc(Cl)cc1,"inconclusive: 1.3 µM [activator, full curve]",
CSc1nc(NCc2ccccc2)c2c3c(sc2n1)CN(C)CC3,"inconclusive: 18.4 µM [activator, single point]",

SMILES,Potency,"activity change, positive = activation"
COCC1CCCCN1C(=O)c1ccc2oc(CCCc3ccccc3)nc2c1 (stereo not given),"inconclusive: 23.1 µM [activator, partial curve, poor fit]",
CC(C)N(C1=N/C(=C\c2ccco2)C(=O)N1c1ccccc1)C(C)C,,inactive: -4.56%
Cc1cc(Cl)ccc1OCc1nnc(-c2ccccc2C)o1,"inconclusive: 13 µM [activator, partial curve, poor fit]",
COC(=O)c1ccc(NC(=O)CSc2nccn2CCc2ccccc2)cc1,"inconclusive: 32.6 µM [activator, partial curve, poor fit]",
CNS(=O)(=O)c1cccc(C(=O)OCC(=O)NCc2ccccc2)c1,,inactive: 1.08%
COc1nc(-c2ccccc2)ccc1-c1noc(-c2ccccc2)n1,active: 17.8 µM,
FC(F)(F)c1ccc(CN2CCN(Cc3ccco3)CC2)cc1,,inactive: -1.41%
COC(=O)C(Cc1ccccc1)NC(=O)CNC(=O)c1ccccc1OC (stereo not given),,inactive: 1.12%
CC(=O)Nc1nc(COc2ccccc2)cs1,active: 10.3 µM,
Cc1ccc(C(=O)Nc2nccs2)s1,"inconclusive: 23.1 µM [activator, single point]",
COc1ccc(-n2cc(-c3ccccc3)[nH]c2=S)c(OC)c1,,inactive: -4.62%
COc1ccc(-n2ncc3c(=O)n(CC(=O)OCc4ccccc4)cnc32)cc1,"inconclusive: 20.6 µM [activator, partial curve, poor fit]",
COc1ccc(OC)c(NC(=O)CSc2nnnn2-c2ccc3c(c2)OCO3)c1,,inactive: 10.8%
COc1ccc(Cl)cc1NC(=O)c1nnn(CC(=O)Nc2ccc(C)c(C)c2)c1N,,inactive: 9.38%
C/C(=N/NC(=O)c1cccc(N2CCCC2=O)c1)c1ccncc1,"inconclusive: 14.6 µM [activator, partial curve, poor fit]",
O=C(OCC(=O)N1CCOCC1)c1ccccc1O,"inconclusive: 16.4 µM [activator, partial curve]",
CCOc1ccc(CC(=O)Nc2cccc(-c3ccc4nnc(C)n4n3)c2)cc1,"inconclusive: 13 µM [activator, partial curve]",
CCOC(=O)c1sc2nc(-c3cccnc3)ccc2c1N,active: 2.59 µM,
O=C(Nc1cccnc1)c1ccc(S(=O)(=O)c2ccc(Cl)cc2)cc1,,inactive: -20.7%
Cc1cc(C)n2ncc(/C(N)=N/OC(=O)c3ccccc3F)c2n1,"inconclusive: 18.3 µM [activator, partial curve, poor fit]",
CN(C)c1ccc(/C=C(\Cl)c2nc3ccccc3s2)cc1,"inconclusive: 0.92 µM [activator, partial curve, poor fit]",
C/C(=N\NC(=O)c1ccccc1O)c1cccs1,"inconclusive: 2.59 µM [activator, partial curve]",
CCOC(=O)C1(Cc2cccc(OC)c2)CCCN(C(=O)CCN2CCCO2)C1 (stereo not given),active: 23.1 µM,
CN(C)c1cccc(-c2nnc(SCCCC#N)o2)c1,"inconclusive: 2.06 µM [activator, full curve]",
COc1ccc(C2NN=C(c3ccc(C)cc3)S2)cc1 (stereo not given),"inconclusive: 4.11 µM [activator, full curve]",

SMILES,Potency,"activity change, positive = activation"
CSCC(=O)N1CCc2ccc(NC(=O)c3ccccc3Cl)cc2C1,"inconclusive: 16.4 µM [activator, partial curve, poor fit]",
COc1ccc(CNC(=O)c2cc3cccc(OC)c3oc2=N)cc1,"inconclusive: 23.1 µM [activator, partial curve, poor fit]",
COC(=O)c1ccc(/C=N/N2CCN(Cc3ccccc3)CC2)cc1,"inconclusive: 29.1 µM [activator, partial curve, poor fit]",
Fc1ccccc1COc1ccc(Br)cc1CNCc1ccncc1,,inactive: -23.6%
CCOc1ccc(NC(=O)CSc2nc3ccccc3c(=O)n2CCCC(=O)NCC2CCCO2)cc1 (stereo not given),"inconclusive: 29.1 µM [activator, single point]",
Cc1cc(C)n(-c2ccc(N3CCOCC3)nn2)n1,"inconclusive: 15.8 µM [activator, single point]",
CC1(C)Cc2nc3sc4c(=O)n(Cc5ccccc5)cnc4c3cc2CS1,,inactive: 1.69%
COc1cc(C(=O)Nc2ccc(N(C)C)cc2)c([N+](=O)[O-])cc1OC,"inconclusive: 23.1 µM [activator, single point]",
Nc1oc2ccccc2c(=O)c1-c1ccc2c(c1)OCO2,"inconclusive: 16.4 µM [activator, single point]",
C(/C=C/c1ccco1)=N/N1CCN(c2ccccc2)CC1,"inconclusive: 8.2 µM [activator, partial curve]",
Nn1cnnc1SCC(=O)Nc1ccc(C2CCCCC2)cc1,"inconclusive: 16.4 µM [activator, partial curve, poor fit]",
CCn1cc(/C=N/NC(=O)c2ccc3c(c2)OCO3)c(C)n1,,inactive: 2.48%
COc1ccc(-c2nc3n(c2Br)CCC3)cc1,"inconclusive: 2.91 µM [activator, full curve, poor fit]",
Cc1ccc(NC(=O)c2cnccn2)nc1,,inactive: 0%
CCN1C(=O)c2cccc3c(NC(=O)c4ccccc4)ccc1c23,"inconclusive: 23.1 µM [activator, single point]",
N/C(=N\OC(=O)COc1ccccc1)c1cccnc1,,inactive: 0.0058%
COc1ccc(-c2csc(N(CC3CCCO3)C(=O)c3ccccc3)n2)cc1 (stereo not given),,inactive: -13.1%
CC(NS(=O)(=O)c1cccc(Cl)c1)C(=O)Nc1ccc(-c2nc3ccccc3s2)cc1 (stereo not given),"inconclusive: 13 µM [activator, partial curve]",
Cc1ccc(-c2nc3sc4c(c3c(=O)n2N)CCCC4)cc1,"inconclusive: 2.06 µM [activator, partial curve, poor fit]",
Cc1csc2ncc(C(=O)Nc3ccon3)c(=O)n12,,inactive: 5.08%
CSc1ccc(/C=C/c2ccc3cccc(O)c3n2)cc1,"inconclusive: 2.31 µM [activator, partial curve]",
Cc1ccc(-n2nc3ccc(NC(=O)C(C)C)cc3n2)cc1,active: 1.16 µM,
COc1ccc(C2NN=C(c3ccc(C)cc3)S2)cc1OC (stereo not given),"inconclusive: 2.59 µM [activator, partial curve, poor fit]",
CSc1ccc(/C=N/Nc2cccc(C(=O)O)c2)cc1,active: 0.073 µM,
CC(C)CC1Nc2ncnc(N3CCN(c4ccccc4)CC3)c2N(Cc2ccccc2)C1=O (stereo not given),"inconclusive: 20.6 µM [activator, partial curve, poor fit]",

# From PubChem BioAssay AID504466 (National Center for Advancing Translational Sciences (NCATS), 2011)
